{
  "source": "the RNAGym collection of RNA variant scans (doi:10.7554/elife.90254)",
  "parents": {"B1": {"name": "LINE1-full (parent)", "chain": "UACGUAGGUGGUUUUCCCCUGAUAGUGCUAAGGGGGCCUGGAAGUUUGGACUGGGCAGAGCUCAACACAGCGUGGCAAAGUGGCUGUGGCUAGACUGCCUCUCUGGAUUCCUCGUCACUCAGCAGGGCAUCUCUGAGAGAAAUGCC"}},
  "note": "The source gives no read counts; variants with many changes may rest on few reads.",
  "data": [
    {"variants_of": "B1", "test": "self-cleavage, relative activity (ratio to wild type); higher = more cleavage; in vitro, sequencing; the parent is a self-cleaving ribozyme", "values": [
      {"variant": "UACGUAGGUGGUCUUCCCCUGAUAGUGCUAAGGGGGCCUGGAAGUUUGGACUGGGCAGAGCUCAGCACGGCGGGGCAAAGUGGCUGUGGCUAGACUGCCUCUCUGGAAUCCUCGUCACUCAGCAGGGCAUCUCUGAGAGAAAUGCC", "self-cleavage": 0},
      {"variant": "UACGUAGGUGGUCUUCCCCUGAUAGUGCUAAGGGGGCCUGGAAGUUUGGGCUGGGCAGAGCCCAACACAGCGUGGCAAAGUGGCUGUGGCUAGACUGCCUCUCUGGAUUCCUCGUCACUCAGCUGGGCAUCUCUGAGAGAAAUGCC", "self-cleavage": 0.26},
      {"variant": "UACGUAGGUGGUCUUCCCCUGAUAGUGCUAAGGGGGCCUGGAAGUUUGGACUGGGCAGAGCUCAACGCAGCGUGGCAAAGUGGCUGUGGCUAGACUGCCUCUCUGGAUUCCUCGUCACUCAGCAGGGCAUCUCGGAGAGAAAAGCC", "self-cleavage": 0.62},
      {"variant": "UACGUAGGUGGUCUUCCCCUGAUAGUGCUAAGGGGGCCUGGAAGUUUGGACUGGGCAGGGCUCAACACAGCGUGGCAAAGUGGCUGUGGCUAGACUGCCUCUCAGGAUUCCUCGUCACUCAGCAGGGCAUCUCUGAGAGAAAUGCC", "self-cleavage": 0.03},
      {"variant": "UACGUAGGUGGUCUUCCCCUGAUAGUGCUAAGGGGGCCUGGAAGUUUGGACUGGGCAGAGCUCAACACAGCGUGGCGAAGUGGCUGAGGCUAGACUGCCUCUCUGGAUUCCUCGUCACUCAGCAGGGCAUCUCUGAGAGAAAUGCC", "self-cleavage": 0.2},
      {"variant": "UACGUAGGUGGUCUUCCCCUGAUAGUGCUAAGGGGGCCUGGAAGUUUGGACUGGGCAGAGCUCAACUCAGCGUGGCAAAGUGGCUGUGGCUAGACUGCCUCUCUGGAUUCCUCGUCACUCGGCAGGGCAUCUCUGAGAGAAAUGCC", "self-cleavage": 0.2},
      {"variant": "UACGUAGGUGGUCUUCCCCUGAUAGUGCUAAGGGGGCCUGGAAGUUUGGACUGGGCAGAGCUCAACACUGCGUGGCAAAGUGGCUGUGGCUAGACUGCCACUCUGGAUUCCUCGUCACUCAGCAGGGCAUCUCUGAGAGAAAUGCC", "self-cleavage": 0.02},
      {"variant": "UACGUAGGUGGUCUUCCCCUGAUAGUGCUAAGGGGGCCUGGAAGUUUGGACUGGGCGGAGCUCAACACAGCGUGGCAAAGUGGCUGUGGCUAGACUGCCACUCUGGAUUCCUCGUCACUCAGCAGGGCAUCUCUGAGAGAAAUGCC", "self-cleavage": 0.46},
      {"variant": "UACGUAGGUGGUCUUCCCCUGAUAGUGCUAAGGGGGCCUGGAAGUUUGGACUGGGCAGAGCUCAACACAGCGUGGCCAAGUGGCUGUGGCUAGACUGCCUCUCUGGAUUUCUCGUCGCUCAGCAGGGCACCUCUGAGAGAAAUGCC", "self-cleavage": 1.67},
      {"variant": "UACGUAGGUGGUCUUCCCCUGAUAGUGCUAAGGGGGCCUGGAAGUUUGGACUGGGCAGAGCUCAACGCAGCGUGGCAAAGUGGCUGUGGCUAGACUGCCUCUCUGGAUACCUCGUCACUCAGCAGGGCACCUCUGAGAGAAAUGCC", "self-cleavage": 0},
      {"variant": "UACGUAGGUGGUCUUCCCCUGAUAGUGCUAAGGGGGCCUGGAAGUUUGGACUGGGCAGAGCUCAACUCAGCGUGGCAAAGUGGCUGUGGCUAGACUGCCUCUCUGGAUUCCUCGUCACUCAGCAGGGCUUCUCGGAGAGAAAUGCC", "self-cleavage": 0.08},
      {"variant": "UACGUAGGUGGUCUUCCCCUGAUAGUGCUAAGGGGGCCUGGAAGUUUGGACUGGGCAGAGCUCAGCACAGCGUGGCAAAGUGGCUGUGGCUAGACUGCCCCUCUGGAUUCCUCGUCACUCAGCAGGGCAUCUCUGAGAGAAAUGCC", "self-cleavage": 0},
      {"variant": "UACGUAGGUGGUCUUCCCCUGAUAGUGCUAAGGGGGCCUGGAAGUUUGGACUGGGCGGAGCUCAACACAGCGUGGCAAAGUGGUUGUGGCUAGACUGCCUCUCUGGAUUCCUCGUCACUCAGCAGGGCAUCUCUGAGAGAGAUGCC", "self-cleavage": 0.11},
      {"variant": "UACGUAGGUGGUCUUCCCCUGAUAGUGCUAAGGGGGCCUGGAAGUUUGGACUGGGCAGAGCUCGACACAGCGUGGCAAAGUGGCUGUGGCUAGACUGCCUCACUGGAUUCCUCGUCACUCAUCAGGGCAUCUCUGAGAGAAAUGCC", "self-cleavage": 0.31},
      {"variant": "UACGUAGGUGGUCUUCCCCUGAUAGUGCUAAGGGGGCCUGGAAGUUUGGACUGGGCAGAGCUCAACACGGCGUGGCAAAGUGGCUGUGGCUAGACUGCCUCUCUGGAUUCCUCGUCACUCAGCAGGGCAUCUCUGAGAGAACUGCC", "self-cleavage": 0.41},
      {"variant": "UACGUAGGUGGUCUUCCCCUGAUAGUGCUAAGGGGGCCUGGAAGUUUGGACUGGGCGGAGCUCAACACAGCGUGGCAAAGUGGCUGUGGCUAGACUGCCUCUCUGGAUUCCUCGUCACUCAGCAGGGCAUCUCGGAGAGAAAUGCC", "self-cleavage": 1.31},
      {"variant": "UACGUAGGUGGUCUUCCCCUGAUAGUGCUAAGGGGGCCUGGAUGUUUGGACUGGGCAGAGCUCAACACAGCGUGGCAAAGUGGCUGUGGCUAGACUGCCUCUCUGGAUACCUCGUCACUCAGCAGGGCAUCUCUGAGAGAAAUGCC", "self-cleavage": 1.24},
      {"variant": "UACGUAGGUGGUCUUCCCCUGAUAGUGCUAAGGGGGCCUGGAAGUUUGGGCUGGGCAGAGCUCAACACAGCGUGGCAAAGUGGCUGUGGCUAGACUGCCUCUCUGGAUUCCUCGUCGCUCAGCAGGGCAUCUCUGAGAGAAAUGCC", "self-cleavage": 1.62},
      {"variant": "UACGUAGGUGGUCUUCCCCUGAUAGUGCUAAGGGGGCCUGGAAGUUUGGGCUGGGCAGAGCUCAACACAGCGUGGCAAAGUGGCUGUGGCUAGACUGCCUCUCUGGAUUCCUCGUCACUCAGCGGGGCAUCUCUGAGAGAAAUGCC", "self-cleavage": 0.23},
      {"variant": "UACGUAGGUGGUCUUCCCCUGAUAGUGCUAAGGGGGCCUGGAAGUUUGGUCUGGGCAGAGCUCAACUCAGCGUGGCAAAGUGGCUGUGGCUAGACUGCCUCUCUGGAUUCCUCGUCGCUCAGCAGGGCUUCUCUGAGAGAAAUGCC", "self-cleavage": 0.3}
    ]}
  ]
}
